Patent US20240248079A1, “IMPROVED UnaG FLUORESCENT PROTEIN FOR BiFC ASSAYS” (THE REGENTS OF THE UNIVERSITY OF CALIFORNIA, priority 2021, published 2024)

What was measured:
wild type KRas with Raf1 = target: T1, wild type KRas with Raf1 (Homo sapiens, UniProt P01116); test: SURF imaging of wild type KRas and Raf1 interaction; assay type: cell-based
T1 construct: full length KRas and amino acids 50-131 of Raf1; expressed in transfected cells

[1] = target: KRas G12C mutant and Raf1 interaction (Homo sapiens, UniProt P01116, G12C); test: PPI reporter imaging of KRas G12C mutant and Raf1 interaction
Sequence of KRas G12C mutant and Raf1 interaction (P01116 1-186 isoform P01116-2 G12C limits assumed): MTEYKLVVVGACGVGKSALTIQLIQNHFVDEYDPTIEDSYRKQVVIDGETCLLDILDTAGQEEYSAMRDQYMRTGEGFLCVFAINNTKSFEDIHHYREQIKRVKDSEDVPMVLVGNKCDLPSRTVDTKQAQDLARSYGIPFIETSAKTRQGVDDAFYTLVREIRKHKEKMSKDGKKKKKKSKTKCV

[2] = target: T2, PPI between MYCN and AURKA (Homo sapiens, UniProt O14965); test: SURF reporter of MYCN (1-137) and AURKA (122-403): verification, high throughput screening, time course; assay type: cell-based
T2 construct: expressed in transfected cells
T2 sequence (O14965 122-403): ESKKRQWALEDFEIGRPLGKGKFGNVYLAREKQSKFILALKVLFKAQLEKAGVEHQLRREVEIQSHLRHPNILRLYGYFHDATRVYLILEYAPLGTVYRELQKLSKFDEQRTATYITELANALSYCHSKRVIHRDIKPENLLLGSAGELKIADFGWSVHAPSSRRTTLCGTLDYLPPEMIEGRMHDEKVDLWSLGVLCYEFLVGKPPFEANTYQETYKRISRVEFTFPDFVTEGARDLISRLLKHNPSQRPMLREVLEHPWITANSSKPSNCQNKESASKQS
Description: To identify clinical drugs that can inhibit the interaction between YAP1 and TEAD, a SURF-based reporter for imaging this PPI was developed. […] Next, a high throughput screening of 1622 FDA-approved drugs (1 μM final concentration) was carried out. […] Here, ten fields-of-view (FOV) were imaged per well (i.e. per drug). The images were analyzed using ImageJ in an automated batch processing to calculate: 1) the SURF fluorescence per one FOV; 2) the co-expressed mCherry fluorescence per FOV; 3) normalized SURF fluorescence by mCherry. Then, we calculated: 1) the fold change of normalized SURF fluorescence (averaged by 10 FOV) for each drug (vs buffer); and 2) the p-value based on 10 FOV for each drug (vs buffer).
To identify clinical drugs that can inhibit the interaction between MYCN and AURKA, a SURF-based reporter was developed for imaging this PPI (FIG. 5).
To examine how fast the identified drugs inhibit the PPI, the top five drugs were selected for a time course assay.

[3] = tested on: neuroblastoma cell lines (Kelly, CHP134, SKNAS); test: WST-1 cell proliferation assay; assay type: cell-based; conditions: WST-1 assay
[4] = tested on: MYCN protein in MYCN-amplified neuroblastoma cells (Kelly cells); test: MYCN protein levels by western blot; assay type: cell-based
Description: Second, SURF assays for KRas^G12V and Raf1; YAP and TEAD were also developed.
To examine whether the identified drugs block MYCN activity in cancer cells, MYCN protein levels were assessed by western blot.

T1 sequence (P01116 1-186 isoform P01116-2 limits assumed): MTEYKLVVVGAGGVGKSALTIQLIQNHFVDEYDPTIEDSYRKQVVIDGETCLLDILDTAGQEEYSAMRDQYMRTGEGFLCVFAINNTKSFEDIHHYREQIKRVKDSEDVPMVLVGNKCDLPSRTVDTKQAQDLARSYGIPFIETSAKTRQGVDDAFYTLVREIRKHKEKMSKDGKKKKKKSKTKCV

Q: How did the “SURF fluorescence upon addition of inhibitor” value (wild type KRas with Raf1) turn out when `C=CC(=O)N1CC(N2CCN(C(=O)CNc3cc(C4(C)CC4)c(Cl)cc3O)CC2)C1` [ARS-853] was run?
A: did not change

Q: What about the “SURF fluorescence upon addition of inhibitor” value [1] of the same molecule?
A: fluorescence loss upon addition of ARS-853

Q: `O=C(Nc1ccc(Nc2nccc(Nc3cc(C4CCCC4)[nH]n3)n2)cc1)Nc1cccc(C(F)(F)F)c1` [CD532] was tested. Which “effect on PPI / SURF fluorescence” value ([2]; cSURF-MYCN (1-137), nSURF-AURKA (122-403)) did it give?
A: detected dissociation of these two proteins

Q: What about the anti-proliferation effect [3] of the same molecule?
A: showed anti-proliferation effects

Q: For `CC(=O)O[C@H]1[C@H]2O[C@]23[C@@H]2CC[C@]4(O)C[C@@H](O)CC[C@]4(C)[C@H]2CC[C@]3(C)[C@H]1c1ccc(=O)oc1` [cinobufotalin], which “OFF time of PPI inhibition (T1/2 off, half-to-maximum time)” value ([2]; time course assay in living cells) is on record?
A: ~2 h

Q: And the anti-proliferation effect [3]?
A: stronger effect on anti-proliferation than cabozantinib

Q: `C#CCC(Cc1cnc2nc(N)nc(N)c2n1)c1ccc(C(=O)N[C@@H](CCC(=O)O)C(=O)O)cc1` (stereo partly shown) [pralatrexate] was tested. Which “MYCN degradation (MYCN protein level)” value [4] did it give?
A: do not degrade MYCN
